Test results from the supplement of paper PMC12217912.
Some of the results follow. Sequences were assembled here from the parent chain. Inactive controls read about 0.05.

B1: TEV protease; numbered along this chain (parent)
chain: MGESLFKGPRDYNPISSSICHLTNESDGHTTSLYGIGFGPFIITNKHLFRRNNGTLVVQSLHGVFKVKDTTTLQQHLVDGRDMIIIRMPKDFPPFPQKLKFREPQREERICLVTTNFQTKSMSSMVSDTSCTFPSGDGIFWKHWIQTKDGQCGSPLVSTRDGFIVGIHSASNFTNTNNYFTSVPKNFMELLTNQEAQQWVSGWRLNADSVLWGGHKVFMVKPEEPFQPVKEATQL

Variants of: B1
Test: raw area under fraction-flipped curve 0-4 h after induction (AUC4h, not background-subtracted), DNA-recorder readout of cleavage of the substrate (dimensionless); higher = more cleavage of the substrate by the protease variant
Settings: temperature: 34 °C; time window: 0-4 h after rhamnose induction
Procedure: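 In vivo DNA recorder in E. coli TOP10(DE3) ΔrhaA at 34 °C. Each TEVp single-site mutant (parent TEVp 0) is paired with a single-site variant of the 7-mer TEVs (canonical ENLYFQ|S). The substrate sits between flexible linkers in a Bxb1-sfGFP-TEVs-SsrA fusion, so cleavage stabilises Bxb1 and speeds flipping of a recombination array, read by NGS. The value is the raw area under the fraction-flipped curve over 0-4 h after rhamnose induction (AUC4h), with ≥20 reads per time point. It is not background-subtracted; inactive controls average about 0.047.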
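Further: Bxb1 expression induced with 0.2% (w/v) L-rhamnose at OD600 near 0.5, cultures sampled hourly, flipped fraction per protease–substrate barcode pair counted by paired-end Illumina sequencing.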

| Variant | area with substrate ENAYFQS | area with substrate ENCYFQS | area with substrate ENDYFQS | area with substrate ENEYFQS | area with substrate ENHYFQS | area with substrate ENKYFQS | area with substrate ENQYFQS | area with substrate ENRYFQS | area with substrate ENSYFQS | area with substrate ENTYFQS | area with substrate ENVYFQS | area with substrate ENFYFQS | area with substrate ENGYFQS | area with substrate ENIYFQS | area with substrate ENMYFQS | area with substrate ENNYFQS | area with substrate ENPYFQS | area with substrate ENWYFQS | area with substrate ENYYFQS |
| --- | --- | --- | --- | --- | --- | --- | --- | --- | --- | --- | --- | --- | --- | --- | --- | --- | --- | --- | --- |
| MGESLFKGPRDYNPISSSIQHLTNESDGHTTSLYGIGFGPFIITNKHLFRRNNGTLVVQSLHGVFKVKDTTTLQQHLVDGRDMIIIRMPKDFPPFPQKLKFREPQREERICLVTTNFQTKSMSSMVSDTSCTFPSGDGIFWKHWIQTKDGQCGSPLVSTRDGFIVGIHSASNFTNTNNYFTSVPKNFMELLTNQEAQQWVSGWRLNADSVLWGGHKVFMVKPEEPFQPVKEATQL [C20Q] | 0.0535 | 0.059 | 0.0518 | 0.0476 | 0.0562 | 0.0351 | 0.0423 | 0.0504 | 0.0571 | 0.0211 | 0.0524 | – | – | – | – | – | – | – | – |
| MGESLFKGPRDYNPISSSICALTNESDGHTTSLYGIGFGPFIITNKHLFRRNNGTLVVQSLHGVFKVKDTTTLQQHLVDGRDMIIIRMPKDFPPFPQKLKFREPQREERICLVTTNFQTKSMSSMVSDTSCTFPSGDGIFWKHWIQTKDGQCGSPLVSTRDGFIVGIHSASNFTNTNNYFTSVPKNFMELLTNQEAQQWVSGWRLNADSVLWGGHKVFMVKPEEPFQPVKEATQL [H21A] | 0.0582 | 0.0577 | 0.0481 | 0.0522 | 0.0657 | 0.0645 | 0.0603 | 0.0592 | 0.0621 | 0.0485 | 0.0796 | 0.0607 | 0.0633 | 0.0979 | 0.0785 | 0.0624 | 0.0541 | 0.007 | 0.0478 |
| MGESLFKGPRDYNPISSSICHETNESDGHTTSLYGIGFGPFIITNKHLFRRNNGTLVVQSLHGVFKVKDTTTLQQHLVDGRDMIIIRMPKDFPPFPQKLKFREPQREERICLVTTNFQTKSMSSMVSDTSCTFPSGDGIFWKHWIQTKDGQCGSPLVSTRDGFIVGIHSASNFTNTNNYFTSVPKNFMELLTNQEAQQWVSGWRLNADSVLWGGHKVFMVKPEEPFQPVKEATQL [L22E] | 0.0367 | 0.022 | 0.0517 | 0.0501 | 0.0479 | 0.054 | 0.0477 | 0.0429 | 0.0462 | 0.0415 | 0.0478 | 0.0503 | 0.045 | 0.0736 | 0.0482 | 0.0526 | 0.0452 | – | 0.0455 |
| MGESLFKGPRDYNPISSSICHPTNESDGHTTSLYGIGFGPFIITNKHLFRRNNGTLVVQSLHGVFKVKDTTTLQQHLVDGRDMIIIRMPKDFPPFPQKLKFREPQREERICLVTTNFQTKSMSSMVSDTSCTFPSGDGIFWKHWIQTKDGQCGSPLVSTRDGFIVGIHSASNFTNTNNYFTSVPKNFMELLTNQEAQQWVSGWRLNADSVLWGGHKVFMVKPEEPFQPVKEATQL [L22P] | 0.0396 | 0.0628 | 0.0454 | 0.0394 | 0.0481 | – | 0.0462 | 0.0468 | 0.0543 | 0.0583 | – | 0.0539 | 0.0647 | 0.0514 | 0.0428 | 0.0449 | 0.0403 | 0.0366 | 0.0463 |
| MGESLFKGPRDYNPISSSICHLCNESDGHTTSLYGIGFGPFIITNKHLFRRNNGTLVVQSLHGVFKVKDTTTLQQHLVDGRDMIIIRMPKDFPPFPQKLKFREPQREERICLVTTNFQTKSMSSMVSDTSCTFPSGDGIFWKHWIQTKDGQCGSPLVSTRDGFIVGIHSASNFTNTNNYFTSVPKNFMELLTNQEAQQWVSGWRLNADSVLWGGHKVFMVKPEEPFQPVKEATQL [T23C] | 0.0568 | 0.0532 | 0.0638 | 0.0653 | 0.0547 | 0.0619 | 0.0545 | 0.0586 | 0.0619 | – | 0.0658 | 0.0577 | – | 0.134 | 0.0947 | 0.0643 | 0.0514 | 0.0564 | 0.0565 |
| MGESLFKGPRDYNPISSSICHLLNESDGHTTSLYGIGFGPFIITNKHLFRRNNGTLVVQSLHGVFKVKDTTTLQQHLVDGRDMIIIRMPKDFPPFPQKLKFREPQREERICLVTTNFQTKSMSSMVSDTSCTFPSGDGIFWKHWIQTKDGQCGSPLVSTRDGFIVGIHSASNFTNTNNYFTSVPKNFMELLTNQEAQQWVSGWRLNADSVLWGGHKVFMVKPEEPFQPVKEATQL [T23L] | 0.0613 | 0.063 | 0.0535 | 0.0584 | – | 0.0571 | – | 0.0567 | 0.0619 | 0.0612 | 0.0711 | 0.0607 | 0.0703 | – | 0.08 | 0.0473 | – | 0.056 | 0.068 |
| MGESLFKGPRDYNPISSSICHLNNESDGHTTSLYGIGFGPFIITNKHLFRRNNGTLVVQSLHGVFKVKDTTTLQQHLVDGRDMIIIRMPKDFPPFPQKLKFREPQREERICLVTTNFQTKSMSSMVSDTSCTFPSGDGIFWKHWIQTKDGQCGSPLVSTRDGFIVGIHSASNFTNTNNYFTSVPKNFMELLTNQEAQQWVSGWRLNADSVLWGGHKVFMVKPEEPFQPVKEATQL [T23N] | 0.0592 | 0.064 | 0.0636 | 0.0534 | 0.0722 | 0.0477 | – | 0.0608 | 0.0627 | 0.0544 | 0.0733 | – | 0.0574 | 0.0993 | 0.0617 | 0.0615 | 0.0558 | – | 0.0553 |
| MGESLFKGPRDYNPISSSICHLYNESDGHTTSLYGIGFGPFIITNKHLFRRNNGTLVVQSLHGVFKVKDTTTLQQHLVDGRDMIIIRMPKDFPPFPQKLKFREPQREERICLVTTNFQTKSMSSMVSDTSCTFPSGDGIFWKHWIQTKDGQCGSPLVSTRDGFIVGIHSASNFTNTNNYFTSVPKNFMELLTNQEAQQWVSGWRLNADSVLWGGHKVFMVKPEEPFQPVKEATQL [T23Y] | 0.0536 | 0.0608 | 0.0658 | 0.0677 | 0.056 | – | 0.0568 | 0.064 | 0.0494 | 0.0776 | – | 0.0562 | 0.0611 | 0.0969 | 0.0481 | 0.055 | 0.046 | – | 0.0512 |
